# PubChem BioAssay AID1745853 (National Center for Advancing Translational Sciences (NCATS), 2022)
# The other results are listed elsewhere or left out. The main result of the screen is listed elsewhere. These columns were measured beside it and carry no call.
# Experiments:
# Experiment in all cases: Primary Screen for Target Class Profiling of Small Molecule Inhibitors of Methyltransferases
# [1] = molecular target: Glycine N-methyltransferase (Homo sapiens) (UniProt Q14749); details: purified enzyme, MTase-Glo SAH luminescence; measured here: GNMT inhibition; at 40 µM; stronger effect = lower value
# Outline: (§1)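 Each enzyme was assayed with SAM and its substrate. SAH formation detected by MTase-Glo luminescence; single-point 40 uM screen[…].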
# [2] = molecular target: Guanidinoacetate N-methyltransferase (Homo sapiens) (UniProt Q14353); details: purified enzyme, MTase-Glo SAH luminescence; measured here: GAMT inhibition; at 40 µM; stronger effect = lower value
# Outline: as §1
# [3] = molecular target: Histamine N-methyltransferase (Homo sapiens) (UniProt P50135); details: purified enzyme, MTase-Glo SAH luminescence; measured here: HNMT inhibition; at 40 µM; stronger effect = lower value
# Outline: as §1
# [4] = molecular target: Nicotinamide N-methyltransferase (Homo sapiens) (UniProt P40261); details: purified enzyme, MTase-Glo SAH luminescence; measured here: NNMT inhibition; at 40 µM; stronger effect = lower value
# Outline: as §1
# [5] = molecular target: Phenylethanolamine N-methyltransferase (Homo sapiens) (UniProt P11086); details: purified enzyme, MTase-Glo SAH luminescence; measured here: PNMT inhibition; at 40 µM; stronger effect = lower value
# Outline: as §1
# % is scaled to controls: 0 for no effect and ±100 for the full control effect.
SMILES,"activity change, negative = inhibition [1]","activity change, negative = inhibition [2]","activity change, negative = inhibition [3]","activity change, negative = inhibition [4]","activity change, negative = inhibition [5]"
COc1ccccc1CN1C(=O)c2cc3ccccc3n2CC1(C)C(=O)NC1CCCCCC1 (stereo not drawn),4.32%,0%,1.72%,3.38%,-1.41%
COc1ccc(-c2nnc3n(Cc4ccccc4)c(=O)c4ccccc4n23)c(OC)c1,-7.75%,3.18%,-0.04%,-9.03%,-2.01%
CCc1cc2c(cc3n2CC(C)(C(=O)NC2CCCCCC2)N(CCCN2CCCC2)C3=O)s1 (stereo not drawn),-2.97%,4.63%,-4.1%,-15.2%,-1.12%
CN1C(C(=O)Nc2ccccn2)=C(O)c2ccccc2S1(=O)=O,-6.23%,13.4%,6.22%,-3.14%,4.42%
COC(=O)[C@H](NC(=O)[C@@H]1C[C@H](NC(=O)Nc2ccc(OC)cc2)CN1C(=O)CSC)C(C)C,-3.42%,-4.05%,-0.545%,-10.6%,-3.96%
CCCN1C(=O)c2c(C(=O)NCc3ccc(F)cc3)ncn2CC1(C)C(=O)NCCC(C)C (stereo not drawn),-2.05%,0.738%,-2.42%,-5.35%,1.79%
COCCOC(=O)C1=C(C)NC(C)=C(C(=O)OC(C)C)C1c1cccc([N+](=O)[O-])c1 (stereo not drawn),-10%,9.35%,5.25%,-16.3%,-4.45%
NCCS,2.91%,14.4%,-0.25%,-1.25%,5.31%
COc1ccc(NC(=O)c2ccc3c(c2)n(C)c(=O)c2ccnn23)cc1OC,-32.1%,-8.63%,-4.42%,-16%,-12.2%
Cc1nc(NC(=O)N2CCCC2C(N)=O)sc1-c1csc(C(C)(C)C)n1 (stereo not drawn),-3.58%,-0.715%,-0.144%,-16.2%,-1.89%
Cc1nn(-c2ccccc2)c2c1C(C)N(C1CCN([S+](=O)([O-])c3c(C)noc3C)C1)C2=O (stereo not drawn),-8.72%,-7.62%,-12%,-22.2%,-16.4%
Cc1ccccc1N1C(=O)c2cc3ccccc3n2CC1(C)C(=O)NC1CCCC1 (stereo not drawn),-4.75%,0%,0.726%,1.7%,-0.345%
COc1ccc2c(c1)OCC(C(=O)NCc1noc(-c3ccco3)n1)C2 (stereo not drawn),-3.52%,0.434%,0.89%,-3.98%,-13%
O=[S+]1([O-])NC2(CCCN(Cc3c(F)cccc3Cl)C2)COc2ccccc21 (stereo not drawn),-73.9%,-7.35%,-3.48%,-10.5%,0.776%
COC[C@@H]1CNC[C@H]1c1ccccn1,-2.37%,-4.08%,0.706%,-0.822%,1.41%
CC(C)(C)c1cnc([C@@H]2COCCN2C2CCCCC2)[nH]1,-6.8%,-10%,-24.8%,-23.9%,-11.4%
COc1ccc(CNC(=O)c2ccc3c(=O)nc4c(-c5ccc(C)cc5)n[nH]n4c3c2)cc1,-21.6%,-3.29%,-9.25%,-14.6%,-10.3%
COc1cccc(C(=O)NC2CCCN(c3ccc4nnc(C5CC5)n4n3)C2)c1 (stereo not drawn),-9.01%,-4.18%,-6.99%,-24.1%,-7.21%
COc1ccc(-c2n[nH]n3c2nc(=O)c2ccc(C(=O)NCc4ccccc4)cc23)cc1,-12.9%,2.45%,3.04%,4.96%,-2.24%
O=C1CC2(CCN(C(=O)C3CCCN3C(=O)c3ccc(Cl)nc3)CC2)Oc2ccccc2N1 (stereo not drawn),-4.02%,-3.01%,-1.62%,-5.08%,-1.67%

SMILES,"activity change, negative = inhibition [1]","activity change, negative = inhibition [2]","activity change, negative = inhibition [3]","activity change, negative = inhibition [4]","activity change, negative = inhibition [5]"
COc1cc(Cc2cnc(N)nc2N)c(C(C)C)cc1OC,1.88%,2.82%,9.19%,-12.5%,7.38%
O=C1c2cc3occc3n2CC(C(=O)NC2CCCCCC2)(c2ccccc2)N1Cc1ccc(F)cc1 (stereo not drawn),-5.95%,0%,-3.39%,-10.1%,-9.79%
CCCCc1nc2c3ccccc3n(CC(=O)N3CCN(c4ccccc4OC)CC3)c(=O)n2n1,13.6%,0.161%,11.4%,2.8%,7.51%
Nc1ncnc2c([C@@H]3N[C@H](CO)[C@@H](O)[C@H]3O)c[nH]c12,0.25%,0.781%,6.14%,-11.2%,-4.3%
CC1(C(=O)NC2CCCCCCC2)Cc2ccccc2C(=O)N1C1CCCCC1 (stereo not drawn),-5.85%,4.12%,2.79%,4.45%,-3.81%
Cc1ccc(-c2nc(C3CC(=O)N(c4ccc(F)c(Cl)c4)C3)no2)cc1C (stereo not drawn),-3.38%,-3.73%,-6.75%,-9.97%,-3.88%
CC(C)NC(=O)c1ccc2c(=O)n(C(C)C)c3nn(Cc4cccc(Cl)c4)c(=O)n3c2c1,0.524%,1.02%,6.84%,-1.18%,5.54%
CCCC1c2cccn2CCN1C(=O)NC1CCCCC1 (stereo not drawn),-3.12%,1.4%,-3.82%,6.63%,2.63%
O=C(c1ccco1)N1Cc2[nH]cnc2C[C@H]1c1nc(-c2ccncc2)no1,-19.4%,-12.9%,-7.23%,-21.6%,-16.8%
COc1cccc(COC2CN(CC(C)C)C(=O)CN(C(=O)c3csc(C(C)=O)c3)C2)c1 (stereo not drawn),-0.603%,1.77%,-1.05%,-1.67%,-2.41%
O=C1NCCCCCCN(C(=O)c2ccccn2)[C@H]2CCCC[C@@H]12,-1.45%,-1.22%,-0.996%,1.9%,0.158%
CCN(CC)CCNC(=O)c1ccc2nc(-c3ccccc3)c(-c3ccc(CN4CCC(n5c(=O)[nH]c6ccccc65)CC4)cc3)nc2c1,-17.2%,16%,-29.9%,-47.6%,-1.38%
Cc1noc2c(N3CCOCC3)cc(-c3cccnc3)nc12,-4.28%,0.237%,-0.914%,-17.8%,1.21%
N#Cc1ccc(CN2CCCC3(Cc4ccccc4NC3=O)C2)cc1 (stereo not drawn),-8.32%,-6.47%,-6.71%,-15.8%,-2.78%
COc1ccccc1-c1nnc2n(CCc3ccccc3)c(=O)c3ccccc3n12,-3.27%,0%,-1%,-3.67%,-1.68%
c1ccc(-c2ccnc3nc(CCC4CCCC4)nn23)nc1,-17.2%,-8.66%,-8.1%,-37%,-20.4%
CCOC(=O)CCC(=O)O[C@H]1[C@H](O[C@@H]2[C@@H](C)[C@H](O[C@H]3C[C@@](C)(OC)[C@@H](O)[C@H](C)O3)[C@@H](C)C(=O)O[C@H](CC)[C@@](C)(O)[C@H](O)[C@@H](C)C(=O)[C@H](C)CC2(C)O)O[C@H](C)C[C@@H]1N(C)C (stereo partly drawn),7.11%,7.64%,5.72%,-9.7%,3.98%
Cc1ccc(C)c(N2CCN(C(=O)CCc3nnc4n(CCc5ccccc5)c(=O)c5ccccc5n34)CC2)c1,-1.83%,1.21%,-8.01%,-11.4%,-2.99%
CCCCCC(=O)N[C@H]1C[C@@H](Cc2cc(CN3CCOCC3)on2)C1(C)C,-5.31%,-11.5%,-3.22%,-7.29%,-6.74%
CC(Oc1cc(-n2cnc3ccc(CN4CCN(C)CC4)cc32)sc1C(N)=O)c1ccccc1C(F)(F)F (stereo not drawn),-33.3%,-8.21%,-52.7%,-41.2%,-41%

SMILES,"activity change, negative = inhibition [1]","activity change, negative = inhibition [2]","activity change, negative = inhibition [3]","activity change, negative = inhibition [4]","activity change, negative = inhibition [5]"
N#CCc1ccc(O)cc1O[C@@H]1O[C@H](CO)[C@@H](O)[C@H](O)[C@H]1O,0.191%,3.28%,7.46%,-8.36%,-4.43%
Cc1cc(C)n(Cc2cc(C(=O)N(C)C(C)c3ccon3)n[nH]2)n1 (stereo not drawn),0.384%,2.21%,0.751%,-2.42%,0.149%
CC1(C(=O)NC2CCCCCC2)Cn2c(cc3occc32)C(=O)N1Cc1ccccc1Cl (stereo not drawn),-0.263%,4.57%,3.26%,2.93%,-2.56%
CCOc1cc(=O)n2c(c1C(=O)NC1CCCC1)CCCCC2,-4.42%,-6.13%,-2.92%,-12.8%,-7.13%
COc1cccc(CNc2nc3c(-c4ccc(C)cc4)nnn3c3ccccc23)c1,-0.16%,0%,4.87%,-6.69%,-0.811%
O=C(Cn1nc2nc(Nc3ccc(F)cc3)ccn2c1=O)Nc1ccc2c(c1)OCCO2,-0.415%,0%,9.36%,-7.47%,-1.9%
CCCn1c(=O)c2ccc(C(=O)NC(C)C)cc2n2c(SCC(=O)Nc3ccccc3C)nnc12,2.09%,0%,5.51%,-1.06%,1.03%
Cc1ccc(NC(=O)CSc2nnc3n(CCCOC(C)C)c(=O)c4ccccc4n23)c(Cl)c1,-11.4%,0%,-2.12%,-13.8%,0.353%
CCOc1ccc(CN2C(=O)c3cc4sccc4n3CC2(C)C(=O)NC2CCCCCCC2)cc1 (stereo not drawn),1.87%,0%,4.67%,-2.74%,1.39%
O=C(CCc1nnc2n(Cc3ccccc3Cl)c(=O)c3ccccc3n12)Nc1ccc(F)c(F)c1,-4.23%,0.09%,6.41%,-12.8%,-2.28%
CC1(C)CC=C(c2cnc3ccccc3c2)c2cc(C(=O)Nc3ccc(C(=O)O)cc3)ccc21,-23.4%,6.52%,5.29%,20.5%,0.448%
COCCc1noc(-c2ccc(N(C)Cc3ncc(C)[nH]3)nc2)n1,-7.46%,-3.79%,-8.78%,-6.9%,-1.22%
CC1CCc2c(cc(Br)c(F)c2Br)N1C=O (stereo not drawn),–,-3.67%,–,-8.37%,2.82%
CC1=C(CCC(C)O[C@@H]2O[C@H](CO)[C@@H](O)[C@H](O)[C@H]2O)C(C)(C)CC(O)C1 (stereo partly drawn),-2.2%,2.17%,5.31%,-10.8%,-3.91%
COC(=O)[C@@H](N)Cc1ccc(O)c(O)c1,-8.64%,13.3%,4.16%,-2.01%,7.44%
CN(C)CCOc1cc(NS(=O)(=O)c2c(Cl)cc(C(F)(F)F)cc2Cl)ccc1Cl,-5.58%,-11.5%,0.777%,-22.4%,-4.41%
CCn1cnnc1-c1nn(C)c2c1CN(C(=O)CCCc1nc3ccccc3s1)CC2,-33.2%,-11%,-12%,-14.7%,-9.5%
COc1ccc2c(c1)c(CC(=O)O)c(C)n2Cc1ccc(Cl)cc1,-32.7%,2.23%,-5.38%,-9.8%,2.94%
C=C1C(=O)OC[C@H]2C(C(=O)O)=CC3CC(C)(C)C[C@@]132 (stereo partly drawn),1.75%,4.4%,13.5%,-7.83%,4.21%
CCNC(=O)CCC/C=C\C[C@@H]1[C@@H](/C=C/C(O)CCc2ccccc2)[C@@H](O)C[C@@H]1O (stereo partly drawn),-5.08%,-3.54%,3.82%,-17.6%,-0.533%
